Holding throughout (assay): universal protein binding microarray (PBM)
Conditions in all cases: transcription factors of Arabidopsis thaliana; high values mean tight binding; most listed sequences are background and not binding sites; double strand, one strand shown

Test [1] deals with T1, GST-ANAC092(1-176) (UniProt Q9FKA0).
T1 sequence: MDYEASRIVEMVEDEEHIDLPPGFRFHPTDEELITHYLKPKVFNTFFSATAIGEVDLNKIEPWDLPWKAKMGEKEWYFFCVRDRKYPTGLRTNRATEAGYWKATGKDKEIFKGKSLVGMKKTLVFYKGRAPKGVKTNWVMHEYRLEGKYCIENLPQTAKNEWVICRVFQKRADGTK

The target of test [2] is GST-NTL6(1-168) (UniProt Q9SCK6).
Test [3] deals with T2, GST-ANAC019 NAC domain (UniProt Q9C932).
T2 sequence: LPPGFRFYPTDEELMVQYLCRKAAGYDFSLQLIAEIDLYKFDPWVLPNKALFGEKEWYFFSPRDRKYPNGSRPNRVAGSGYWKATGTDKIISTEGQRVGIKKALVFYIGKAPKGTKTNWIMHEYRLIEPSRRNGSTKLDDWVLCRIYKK

For test [4], the target named is T3, GST-ANAC055(1-171) (UniProt Q9LDY8).
T3 sequence: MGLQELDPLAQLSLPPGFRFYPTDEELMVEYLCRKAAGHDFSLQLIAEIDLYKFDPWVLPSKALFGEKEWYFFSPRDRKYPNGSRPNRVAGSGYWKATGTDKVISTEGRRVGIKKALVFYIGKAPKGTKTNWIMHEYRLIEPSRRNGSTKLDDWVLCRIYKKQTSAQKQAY

Test [5] concerns the target T4, GST-ATAF1 NAC domain (UniProt Q39013).
T4 sequence: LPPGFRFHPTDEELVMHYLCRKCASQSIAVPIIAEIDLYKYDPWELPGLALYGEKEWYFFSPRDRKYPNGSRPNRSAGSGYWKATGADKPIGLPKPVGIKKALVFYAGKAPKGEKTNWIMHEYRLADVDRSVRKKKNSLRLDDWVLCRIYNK

Test [6] concerns the target T5, GST-NAP(1-166) (UniProt O49255).
T5 sequence: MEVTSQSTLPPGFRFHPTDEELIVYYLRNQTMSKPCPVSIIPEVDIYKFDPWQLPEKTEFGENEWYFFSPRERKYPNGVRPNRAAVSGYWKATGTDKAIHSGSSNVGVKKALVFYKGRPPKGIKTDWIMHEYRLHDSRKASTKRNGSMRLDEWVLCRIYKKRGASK

The target in test [7] is T6, GST-NST2(1-184) (UniProt Q9M274).
T6 sequence: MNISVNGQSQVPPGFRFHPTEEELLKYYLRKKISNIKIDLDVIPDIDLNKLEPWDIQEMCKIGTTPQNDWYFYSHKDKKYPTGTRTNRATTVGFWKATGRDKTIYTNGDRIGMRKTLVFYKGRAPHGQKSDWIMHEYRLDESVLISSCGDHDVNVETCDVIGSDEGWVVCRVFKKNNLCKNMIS

For test [8], the target named is T7, GST-NTL8 NAC domain (UniProt Q9XIN7).
T7 sequence: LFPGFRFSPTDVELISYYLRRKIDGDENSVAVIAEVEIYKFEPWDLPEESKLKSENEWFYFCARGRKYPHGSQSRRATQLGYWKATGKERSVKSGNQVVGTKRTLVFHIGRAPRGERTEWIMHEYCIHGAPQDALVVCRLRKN

Test [9] has as its target T8, GST-VND3 NAC domain (UniProt Q9FH59).
T8 sequence: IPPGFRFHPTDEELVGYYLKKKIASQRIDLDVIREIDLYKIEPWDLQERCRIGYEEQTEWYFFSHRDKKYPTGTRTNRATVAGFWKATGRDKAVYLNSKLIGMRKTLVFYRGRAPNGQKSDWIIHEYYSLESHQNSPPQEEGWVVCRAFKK

The target of test [10] is T9, GST-VND7 NAC domain (UniProt Q9C8W9).
T9 sequence: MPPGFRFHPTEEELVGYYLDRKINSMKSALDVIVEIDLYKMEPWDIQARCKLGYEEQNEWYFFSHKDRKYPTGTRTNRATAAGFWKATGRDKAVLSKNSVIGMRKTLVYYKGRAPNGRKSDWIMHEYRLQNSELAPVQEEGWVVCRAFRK

Test [11] deals with T10, GST-VOZ2 (Arabidopsis thaliana) (UniProt Q9SLB9).
T10 sequence: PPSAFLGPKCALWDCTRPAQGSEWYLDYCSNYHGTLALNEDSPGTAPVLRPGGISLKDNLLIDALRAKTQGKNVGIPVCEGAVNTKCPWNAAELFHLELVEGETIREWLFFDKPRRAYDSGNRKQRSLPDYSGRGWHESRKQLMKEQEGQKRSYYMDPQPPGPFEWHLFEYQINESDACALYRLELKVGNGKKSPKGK

In test [12] the target is GST-WRKY1(266-371) (UniProt Q9SI37).
The target in test [13] is T11, GST-SND1(1-203) (UniProt Q9LPI7).
T11 sequence: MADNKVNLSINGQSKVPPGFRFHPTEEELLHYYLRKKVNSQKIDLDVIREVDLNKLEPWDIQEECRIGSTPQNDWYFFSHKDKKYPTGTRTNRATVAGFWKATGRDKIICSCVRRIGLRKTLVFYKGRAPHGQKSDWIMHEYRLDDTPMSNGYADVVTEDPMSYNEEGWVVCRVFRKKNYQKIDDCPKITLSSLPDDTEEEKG

Test [14] has as its target T12, GST-ANAC092(1-285) full length (UniProt Q9FKA0).
T12 sequence: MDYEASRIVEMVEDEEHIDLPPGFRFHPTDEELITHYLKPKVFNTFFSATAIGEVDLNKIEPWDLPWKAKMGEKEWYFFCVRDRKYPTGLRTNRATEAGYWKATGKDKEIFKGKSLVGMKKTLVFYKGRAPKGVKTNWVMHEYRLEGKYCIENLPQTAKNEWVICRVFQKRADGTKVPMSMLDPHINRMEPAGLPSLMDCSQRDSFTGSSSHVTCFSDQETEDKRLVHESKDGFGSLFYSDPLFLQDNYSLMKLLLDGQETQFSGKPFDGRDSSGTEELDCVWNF

The entries are a selection whose mix differs from that of the whole data set. For part of these data: At the low end of the ranking, values are background and their order means little. The list shows a part of the results. For part of these data: Construct or isoform of the protein are uncertain.

As for AGCGTTGA, the binding signal in test [1] is 0.0263 E-score; in test [2], 0.0737 E-score; in [3], -0.13 E-score; in test [4], 0.00861 E-score; in test [5] it was -0.0398 E-score; in test [6], 0.0398 E-score. The binding signal in test [7] was 0.0637 E-score; in test [8], -0.0995 E-score; in [9] it was -0.101 E-score; in test [10], -0.0167 E-score; in [11], 0.0234 E-score; in test [12], 0.401 E-score.
Take ACACGATA: the binding signal is 0.261 E-score in test [4]; 0.183 E-score in [6]; 0.0171 E-score in test [8]; 0.266 E-score in test [13]; 0.218 E-score in [11]; -0.194 E-score in [12].
Take AAGACCAA: the binding signal is -0.0153 E-score in test [1]; 0.18 E-score in test [2]; 0.172 E-score in test [4]; -0.0774 E-score in test [6]; 0.00577 E-score in [8]; -0.0103 E-score in [13]. In test [11], the binding signal is 0.0393 E-score.
On to CGAAGGAA, for which the binding signal in [1] was 0.176 E-score; in test [2] it was 0.473 E-score; in test [3], 0.0187 E-score; in test [8], 0.459 E-score; in test [9] it was -0.00821 E-score; in test [10] it was 0.0445 E-score. In addition, the binding signal is 0.0667 E-score in test [11] and -0.00171 E-score in [12].
With GCGTAAAA, the binding signal in test [9] turned out to be 0.197 E-score; in test [10], 0.174 E-score; in test [11] it was 0.255 E-score; in test [12], 0.0322 E-score.
With ACTAGTCA, the binding signal was found to be 0.0329 E-score in [2]; 0.0985 E-score in test [3]; 0.134 E-score in [4]; 0.0655 E-score in test [5]; 0.034 E-score in test [7]; 0.128 E-score in test [8]. The binding signal in test [13] was -0.00161 E-score; in test [11], -0.0575 E-score.
With ATTTCCTC, the binding signal in [1] is -0.0162 E-score; in test [2] it was 0.148 E-score; in [3], -0.174 E-score; in [4], 0.00859 E-score; in [5], 0.0269 E-score; in [14] it was -0.0291 E-score. For the same sequence, the binding signal is 0.0401 E-score in test [6]; 0.115 E-score in [7]; 0.00513 E-score in test [9]; -0.0525 E-score in [10]; 0.0711 E-score in test [11]; -0.112 E-score in [12].
On to ATACGTAA, for which the binding signal in test [5] turned out to be 0.407 E-score; in test [6], 0.461 E-score; in test [8] it was 0.0445 E-score; in test [13], 0.393 E-score; in [11], 0.0642 E-score; in test [12], 0.0363 E-score.

Source of the values: paper PMC4081100.
